To fix the notation:
B1: TIGIT-31-33 (Fc fusion)
chain: EVQLVESGGGLVQPGGSLRLSCAASGFTFSTSWMGWFRQAPGKERELVASITSGGSTNYADSVKGRFTISADNSKNTAYLQMNSLKPEDTAVYYCAADVWYGSTWRNWGQGTLVTVSSGGGGS[in this place human IgG1 Fc with C220S (EU numbers)]
notes: VHH-Fc
B2: TIGIT-30-01 (Fc fusion)
chain: EVQLVESGGGLVQAGGSLRLSCAASGFAFSSYWMGWFRQAPGKERELVAARNSGGNTNYADSVKGRFTISADNAKNTVYLQMNSLKPEDTAVYYCAADVWYGSTWRNWGQGTQVTVSSGGGGS[in this place human IgG1 Fc with C220S (EU numbers)]
notes: VHH-Fc; also called 30-1
B3: TIGIT-31-19 (VHH-Fc) (Fc fusion)
chain: EVQLVESGGGLVQPGGSLRLSCAASGRTFGNYAMGWFRQAPGKEREFVADIRSSAGRTYYADSVKGRFTISADNSKNTAYLQMNSLKPEDTAVYYCAASEWGGSDYDHDYDWGQGTLVTVSSGGGGS[in this place human IgG1 Fc with C220S (EU numbers)]
B4: TIGIT-31-22 (VHH-Fc) (Fc fusion)
chain: EVQLVESGGGLVQPGGSLRLSCAASGRTFSTHAMGWFRQAPGKEREFVAAITPINWGGRGTHYADSVKGRFTISADNSKNTAYLQMNSLKPEDNAVYYCAAKRLRSGRWTWGQGTLVTVSSGGGGS[in this place human IgG1 Fc with C220S (EU numbers)]
B5: TIGIT-31-7 (VHH-Fc) (Fc fusion)
chain: EVQLVESGGGLVQPGGSLRLSCAASGSTFSINRMGWFRQAPGKEREWVATIVHSGGHSGGTSYYADSVKGRFTISADNSKNTAYLQMNSLKPEDTAVYYCAARPYTRPGSMWVSSLYDWGQGTLVTVSSGGGGS[in this place human IgG1 Fc with C220S (EU numbers)]
B6: TIGIT-31-29 (VHH-Fc) (Fc fusion)
chain: EVQLVESGGGLVQPGGSLRLSCAASGRSRMGWFRQAPGKEREFVATISWSGSAVYADSVKGRFTISADNSKNTAYLQMNSLKPEDTAVYYCAAGGRYSARVWGQGTLVTVSSGGGGS[in this place human IgG1 Fc with C220S (EU numbers)]
B7: TIGIT-31-28 (VHH-Fc) (Fc fusion)
chain: EVQLVESGGGLVQPGGSLRLSCAASGRTFSSYHMGWFRQAPGKERELVALISRVGVTSYADSVKGRFTISADNSKNTAYLQMNSLKPEDTAVYYCAAVRTYGSATYDWGQGTLVTVSSGGGGS[in this place human IgG1 Fc with C220S (EU numbers)]
B8: TIGIT-31-25 (VHH-Fc) (Fc fusion)
chain: EVQLVESGGGLVQPGGSLRLSCAASGNIFSRYIMGWFRQAPGKEREWVAGISNGGTTKYADSVKGRFTISADNSKNTAYLQMNSLKPEDTAVYYCAQGWKIVPTNWGQGTLVTVSSGGGGS[in this place human IgG1 Fc with C220S (EU numbers)]
B9: TIGIT-31-41 (VHH-Fc) (Fc fusion)
chain: EVQLVESGGGLVQPGGSLRLSCAASGGTLSSYIMGWFRQAPGKEREFVAAISGWSGGTTNYADSVKGRFTISADNSKNTAYLQMNSLKPEDTAVYYCAAARFAPGSRGYDWGQGTLVTVSSGGGGS[in this place human IgG1 Fc with C220S (EU numbers)]
B10: TIGIT-31-51 (VHH-Fc) (Fc fusion)
chain: EVQLVESGGGLVQPGGSLRLSCAASGRNFRRNSMGWFRQAPGKEREFVAVITRSGGGEVTTYADSVKGRFTISADNSKNTAYLQMNSLKPEDTAVYYCAMSSVTRGSSDWGQGTLVTVSSGGGGS[in this place human IgG1 Fc with C220S (EU numbers)]
B11: TIGIT-31-24 (VHH-Fc) (Fc fusion)
chain: EVQLVESGGGLVQPGGSLRLSCAASGRTFSMGWFRQAPGKEREFVATVRWGTSSTYYADSVKGRFTISADNSKNTAYLQMNSLKPEDTAVYYCAAETFGSGSSLMSEYDWGQGTLVTVSSGGGGS[in this place human IgG1 Fc with C220S (EU numbers)]
B12: TIGIT-31-9 (VHH-Fc) (Fc fusion)
chain: EVQLVESGGGLVQPGGSLRLSCAASGGTLSGNAMGWFRQAPGKEREWVASIYWSSGNTYYADSVKGRFTISADNSKNTAYLQMNSLKPEDTAVYYCANSNKPKFDWGQGTLVTVSSGGGGS[in this place human IgG1 Fc with C220S (EU numbers)]
B13: TIGIT-31-23 (VHH-Fc) (Fc fusion)
chain: B12 chain with G27F, L29F, G31N, N32S, A33G
B14: TIGIT-31-03 (VHH-Fc) (Fc fusion)
chain: EVQLVESGGGLVQPGGSLRLSCAASGFTFSGNWMGWFRQAPGKEREFVASISSSGISTYYADSVKGRFTISADNSKNTAYLQMNSLKPEDTAVYYCAADVWYGSTWRNWGQGTLVTVSSGGGGS[in this place human IgG1 Fc with C220S (EU numbers)]
B15: TIGIT-31-21 (VHH-Fc) (Fc fusion)
chain: B14 chain with F29L, T69I
B16: TIGIT-31-14 (VHH-Fc) (Fc fusion)
chain: EVQLVESGGGLVQPGGSLRLSCAASGYTFRAYVMGWFRQAPGKERELVAVINYRGSSLKYADSVKGRFTISADNSKNTAYLQMNSLKPEDTAVYYCAASEWGGSDYDHDYDWGQGTLVTVSSGGGGS[in this place human IgG1 Fc with C220S (EU numbers)]
B17: TIGIT-31-15 (VHH-Fc) (Fc fusion)
chain: EVQLVESGGGLVQPGGSLRLSCAASGFTFSTYGMGWFRQAPGKEREFVAAISWSGVSKHYADSVKGRFTISADNSKNTAYLQMNSLKPEDTAVYYCASSPYGPLYRSTHYYDWGQGTLVTVSSGGGGS[in this place human IgG1 Fc with C220S (EU numbers)]
B18: TIGIT-31-27 (VHH-Fc) (Fc fusion)
chain: B17 chain with S30G, T31H, G33A, K58T, H59Y
B19: TIGIT-31-10 (VHH-Fc) (Fc fusion)
chain: B17 chain with F27H, T31S, F47L, V56I, K58T, H59I
B20: TIGIT-31-30 (VHH-Fc) (Fc fusion)
chain: EVQLVESGGGLVQPGGSLRLSCAASGRTYNMGWFRQAPGKEREWVATIYSRSGGSTTYYADSVKGRFTISADNSKNTAYLQMNSLKPEDTAVYYCATYGYDSGRYYSWGQGTLVTVSSGGGGS[in this place human IgG1 Fc with C220S (EU numbers)]
B21: TIGIT-31-34 (VHH-Fc) (Fc fusion)
chain: EVQLVESGGGLVQPGGSLRLSCAASGRSRYGMGWFRQAPGKEREFVSAISWSGISTYYADSVKGRFTISADNSKNTAYLQMNSLKPEDTAVYYCAATQWGSSGWKQARWYDWGQGTLVTVSSGGGGS[in this place human IgG1 Fc with C220S (EU numbers)]

Numbering of substitutions follows the chain as printed.

The first assay concerns the target T1, TIGIT (T cell immunoreceptor with Ig and ITIM domains) (UniProt Q495A1 22-141, limits assumed).
T1 sequence (looked up): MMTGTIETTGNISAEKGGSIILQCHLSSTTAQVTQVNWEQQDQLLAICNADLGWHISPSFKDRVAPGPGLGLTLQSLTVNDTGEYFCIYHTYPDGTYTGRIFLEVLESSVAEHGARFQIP
In words: SPR (Carterra), VHH-Fc. The text has this:
The Carterra SPR system was used to assess binding affinity and affinity distribution for VHH-Fc variants. […] Table 5A provides specific values for the VHH-Fc clones for ELISA, Protein A (mg/ml), and KD (nM). FIG. 7A and FIG. 7B depict TIGIT affinity distribution for the VHH libraries, over the 20-4000 affinity threshold (FIG. 7A; monovalent KD) and the 20-1000 affinity threshold (FIG. 7B; monovalent KD).
The term Kd denotes the free concentration of one partner at which half of the binding sites on the other are occupied at equilibrium, for simple one-to-one binding. B1 came in with a Kd of 96 nM.
For the molecule B2, the Kd is 71 nM.

The target in a further assay is T2, TIGIT (UniProt Q495A1 22-141, limits assumed).
T2 construct: also called T cell immunoreceptor with Ig and ITIM domains; hTIGIT
T2 sequence (looked up): T1 sequence (looked up)
Nature of the assay: ELISA. In general terms: In an ELISA, binding on a coated surface is turned into a signal by an enzyme label.
B3 displayed an ELISA of 6.7.
The same measure, in the same setting: for B4 the value was 7.4.
B5 displayed an ELISA of 7.9.
Same read-out and setting: for B6 the value was 7.4.
For B7, the ELISA worked out at 3.7.
On the same count and under the same terms, to B8 belongs 6.2.
The same measure, in the same setting: for B9 the value was 5.8; for B10, 12.1.
B11 came in with an ELISA of 3.1.
On the same count and under the same terms, for B12 the value was 9.7; for B13, 6.6; for B14, 9.5.
Same read-out and setting: to B15 belongs 9.4; to B16, 5.8; to B17, 6.2.
In turn, B18 displayed an ELISA of 8.1.
B19 came in with an ELISA of 12.3.
B20 had an ELISA of 3.2.
On the same count and under the same terms, for B21 the value was 6.

In the next assay the target is T2, TIGIT. In words: SPR (Carterra), VHH-Fc.
What is called koff is a measure of how fast the partners let go of each other. Read a high koff as fast dissociation. In general, kon refers to the rate constant with which the complex forms. The low end stands for slow association, the high end for fast association. The molecule B3 yielded a Kd of 125 nM, a dissociation rate constant (koff) of 130 s⁻¹ and a kon of 1e+09 M⁻¹ s⁻¹.
The molecule B4 had a Kd of 4620 nM and a koff of 0.00028 s⁻¹.
B5 returned a Kd of 275 nM, a koff of 0.025 s⁻¹ and a kon of 91000 M⁻¹ s⁻¹.
Turning to B6, binding was put at a Kd of 1680 nM, the koff stood at 0.00054 s⁻¹ and the kon stood at 320 M⁻¹ s⁻¹.
In the same order, the values of B7 are 234 nM, 0.1 s⁻¹ and 440000 M⁻¹ s⁻¹.
Taken in the same sequence, the figures for B8 were 154 nM, 86 s⁻¹ and 5.6e+08 M⁻¹ s⁻¹.
In the same order, the values of B9 are 750 nM, 1 s⁻¹ and 1.3e+06 M⁻¹ s⁻¹.
On to B10, for which the Kd was 784 nM, the koff was found to be 0.067 s⁻¹ and the kon was 85000 M⁻¹ s⁻¹.
In turn, B11 returned a Kd of 75 nM, an off-rate constant (koff) of 0.066 s⁻¹ and a kon of 880000 M⁻¹ s⁻¹.
Taken in the same sequence, the figures for B12 were 131 nM, 0.024 s⁻¹ and 190000 M⁻¹ s⁻¹.
Take B13: the Kd worked out at 127 nM, the koff came to 0.049 s⁻¹ and the kon stood at 380000 M⁻¹ s⁻¹.
Taken in the same sequence, the figures for B14 were 116 nM, 0.03 s⁻¹ and 260000 M⁻¹ s⁻¹.
In the same order, the values of B15 are 122 nM, 0.02 s⁻¹ and 160000 M⁻¹ s⁻¹.
Taken in the same sequence, the figures for B16 were 114 nM, 0.011 s⁻¹ and 100000 M⁻¹ s⁻¹.
In the case of B17, the Kd was determined as 88 nM, the koff came to 2 s⁻¹ and the kon was 2.2e+07 M⁻¹ s⁻¹.
Taken in the same sequence, the figures for B18 were 96 nM, 96 s⁻¹ and 1e+09 M⁻¹ s⁻¹.
The molecule B19 gave a Kd of 94 nM, a koff of 0.12 s⁻¹ and a kon of 1.3e+06 M⁻¹ s⁻¹.
On to B20, for which binding was characterised by a dissociation constant (Kd) of 93 nM, the koff was 93 s⁻¹ and the kon came out at 1e+09 M⁻¹ s⁻¹.
For B21, the affinity, expressed as Kd, was 70 nM; the koff was 0.0039 s⁻¹; the kon is 55000 M⁻¹ s⁻¹.

For the origin of these results see patent publication US20260184782A1 (TWIST BIOSCIENCE, published 2026).
